{"source": "PubChem BioAssay AID504333", "about": "(National Center for Advancing Translational Sciences (NCATS), 2011)", "note": "Hit rate of the full screen: of about 360,000 compounds, about 16,000 (4.4%) were called active. Inconclusive results, whose numbers are uncertain, are shown with a selection of clear calls. Calls come from the whole dose curve; as a rule, active = well fitted inhibition curve with a large enough effect; inconclusive = small, poorly fitted or top-dose-only effect; inactive = no such curve, though single readings can be large or run the other way. Potencies of inconclusive entries are doubtful fits and often do not repeat. Potency is the fitted concentration of half-maximal effect; tags give direction and shape of the fitted curve.", "data": [{"target": "Bromodomain adjacent to zinc finger domain protein 2B (Homo sapiens) (UniProt Q9UIF8)", "sequence (Q9UIF8 whole entry, looked up, the tested form may be a part)": "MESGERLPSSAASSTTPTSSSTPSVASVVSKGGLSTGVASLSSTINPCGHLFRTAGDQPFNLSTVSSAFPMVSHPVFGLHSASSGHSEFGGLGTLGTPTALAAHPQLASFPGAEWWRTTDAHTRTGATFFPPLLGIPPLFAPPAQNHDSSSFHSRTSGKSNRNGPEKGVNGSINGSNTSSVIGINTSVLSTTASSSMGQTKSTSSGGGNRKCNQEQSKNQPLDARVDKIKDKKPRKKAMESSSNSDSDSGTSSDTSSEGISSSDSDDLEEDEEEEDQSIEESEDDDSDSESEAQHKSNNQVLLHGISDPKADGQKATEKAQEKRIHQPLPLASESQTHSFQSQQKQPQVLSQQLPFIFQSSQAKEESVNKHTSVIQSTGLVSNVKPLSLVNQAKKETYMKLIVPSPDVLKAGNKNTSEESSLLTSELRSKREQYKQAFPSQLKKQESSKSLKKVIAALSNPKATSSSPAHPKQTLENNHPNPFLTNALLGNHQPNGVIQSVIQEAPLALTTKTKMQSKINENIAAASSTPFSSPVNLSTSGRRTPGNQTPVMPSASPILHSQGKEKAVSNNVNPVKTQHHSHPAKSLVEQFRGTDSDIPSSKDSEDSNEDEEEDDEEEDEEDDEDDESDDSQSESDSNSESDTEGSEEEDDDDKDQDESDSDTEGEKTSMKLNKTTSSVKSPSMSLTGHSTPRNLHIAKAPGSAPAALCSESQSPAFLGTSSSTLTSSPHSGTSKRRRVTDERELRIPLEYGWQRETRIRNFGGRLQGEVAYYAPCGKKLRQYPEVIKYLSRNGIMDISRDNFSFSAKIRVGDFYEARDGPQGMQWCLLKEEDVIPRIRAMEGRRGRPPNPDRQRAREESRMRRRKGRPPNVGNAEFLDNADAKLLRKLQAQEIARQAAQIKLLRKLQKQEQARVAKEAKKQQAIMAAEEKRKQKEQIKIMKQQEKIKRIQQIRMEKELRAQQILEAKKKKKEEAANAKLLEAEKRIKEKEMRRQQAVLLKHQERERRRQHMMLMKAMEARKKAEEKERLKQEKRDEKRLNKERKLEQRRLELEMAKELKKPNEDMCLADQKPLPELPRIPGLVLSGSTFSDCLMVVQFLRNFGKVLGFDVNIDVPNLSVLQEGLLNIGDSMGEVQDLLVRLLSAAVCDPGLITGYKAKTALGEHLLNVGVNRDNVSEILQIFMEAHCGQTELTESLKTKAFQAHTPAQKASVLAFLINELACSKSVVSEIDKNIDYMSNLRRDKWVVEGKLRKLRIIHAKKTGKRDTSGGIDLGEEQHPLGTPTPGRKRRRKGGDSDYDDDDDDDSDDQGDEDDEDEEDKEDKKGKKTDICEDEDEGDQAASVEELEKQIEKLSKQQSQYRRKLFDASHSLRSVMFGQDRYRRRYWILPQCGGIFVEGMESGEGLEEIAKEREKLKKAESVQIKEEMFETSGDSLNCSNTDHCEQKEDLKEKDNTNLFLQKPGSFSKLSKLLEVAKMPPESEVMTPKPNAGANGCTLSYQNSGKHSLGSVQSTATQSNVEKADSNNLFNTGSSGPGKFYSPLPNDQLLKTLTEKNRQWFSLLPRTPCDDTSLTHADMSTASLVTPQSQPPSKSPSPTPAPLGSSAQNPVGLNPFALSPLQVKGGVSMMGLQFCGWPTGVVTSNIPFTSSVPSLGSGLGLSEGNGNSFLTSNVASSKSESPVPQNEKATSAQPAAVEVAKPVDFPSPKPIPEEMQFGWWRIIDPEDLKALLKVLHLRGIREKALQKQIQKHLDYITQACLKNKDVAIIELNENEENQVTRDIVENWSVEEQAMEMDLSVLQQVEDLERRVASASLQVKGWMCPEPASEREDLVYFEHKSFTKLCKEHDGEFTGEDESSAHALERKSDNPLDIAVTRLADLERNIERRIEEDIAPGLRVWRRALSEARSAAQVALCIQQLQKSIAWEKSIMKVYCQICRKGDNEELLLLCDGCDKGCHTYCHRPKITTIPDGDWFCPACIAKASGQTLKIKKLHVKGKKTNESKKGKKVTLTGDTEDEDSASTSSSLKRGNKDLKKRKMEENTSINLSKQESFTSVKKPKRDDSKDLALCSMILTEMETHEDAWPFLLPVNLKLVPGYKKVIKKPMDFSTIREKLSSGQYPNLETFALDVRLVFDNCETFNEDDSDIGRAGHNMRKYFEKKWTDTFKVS", "test": "qHTS Assay for Inhibitors of BAZ2B; note: nearly all actives have a fitted effect of over 60% in size", "conditions": "AlphaScreen BAZ2B-H3K14Ac peptide displacement; series mostly up to 114 µM", "outline": "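Multi-concentration screen (max 110 uM) measuring displacement of acetylated histone H3 peptide from BAZ2B by AlphaScreen, using 50 nM protein, 50 nM peptide and 10 ug/mL streptavidin donor plus Ni-chelate acceptor beads.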", "values": [{"smiles": "CCOC(=O)Cc1nc2ccccc2n(CC#N)c1=O", "Potency": "inactive"}, {"smiles": "COc1ccc(NC(=O)c2sccc2C)c([N+](=O)[O-])c1", "Potency": "inconclusive: 35.5 µM [inhibitor, partial curve]"}, {"smiles": "O=C1NC(=Nc2ccc(Cl)cc2)/C(=C/c2ccco2)S1", "Potency": "active: 50.1 µM"}, {"smiles": "O=C(CSCc1cccc(Br)c1)N=Nc1c(O)[nH]c2ccccc12", "Potency": "active: 50.1 µM"}, {"smiles": "Cc1ccc(NC(=O)CSc2ccc3nnc(-c4ccccn4)n3n2)cc1", "Potency": "inactive"}, {"smiles": "COc1ccc(OCCn2cc(/C(N)=N/O)c3ccccc32)cc1", "Potency": "inconclusive: 89.1 µM [inhibitor, single point]"}, {"smiles": "FC(F)(F)c1cccc(N/N=C/c2ccccc2)c1", "Potency": "inconclusive: 79.4 µM [inhibitor, single point]"}, {"smiles": "O=[N+]([O-])c1ccccc1/C=C\\C=N\\N1CCN(c2ccccc2)CC1", "Potency": "active: 3.98 µM"}, {"smiles": "CCOc1cc(CNC(=O)c2sc3ncnc(N(C)C4CCCCC4)c3c2C)ccc1OC", "Potency": "inconclusive: 79.4 µM [inhibitor, partial curve]"}, {"smiles": "COCCCNC(=O)CN1C(=O)/C(=C/c2ccccc2C)Sc2ccccc21", "Potency": "inconclusive: 79.4 µM [inhibitor, single point]"}, {"smiles": "Brc1ccccc1OCCNCc1ccccc1", "Potency": "active: 50.1 µM"}, {"smiles": "c1ccc(CNc2ncnc3c2oc2ccccc23)nc1", "Potency": "inactive"}, {"smiles": "CCOC(=O)CSC1=C(C#N)C(c2ccc(C)o2)CC(=O)N1", "note": "(centres undefined)", "Potency": "inactive"}, {"smiles": "COc1ccc(CNS(=O)(=O)c2cnc(N)nc2)c(OC)c1", "Potency": "inactive"}, {"smiles": "C=CCc1cccc(/C=N/NC(=O)C[n+]2ccccc2)c1O", "Potency": "inactive"}, {"smiles": "CC1CCN(C(=S)c2ccc(-c3ccc(Cl)cc3Cl)o2)CC1", "Potency": "inconclusive: 25.1 µM [inhibitor, full curve]"}, {"smiles": "O=c1cnnc(N/N=C/c2ccccn2)[nH]1", "Potency": "active: 8.91 µM"}, {"smiles": "COc1ccc(CNC(=O)c2ccc(N3CCCC3)c(NC(=O)NCc3ccc(F)cc3)c2)cc1", "Potency": "inactive"}, {"smiles": "Cc1[nH]c2ccccc2c1CCNC(=O)c1ccc2nccnc2c1", "Potency": "inconclusive: 89.1 µM [inhibitor, single point]"}, {"smiles": "COCCCNCCOc1cc(C(C)C)ccc1C", "Potency": "active: 79.4 µM"}, {"smiles": "CSc1cccc(NC(=S)N2CCC(N(C)C3CCCCC3C)CC2)c1", "note": "(centres undefined)", "Potency": "inconclusive: 79.4 µM [inhibitor, single point]"}, {"smiles": "Cc1ccc(-n2c(C)cc3c2CC(C)(C)CC3=O)cc1C", "Potency": "inconclusive: 44.7 µM [inhibitor, partial curve]"}, {"smiles": "Clc1ccc(-c2csc(N/N=C/c3ccco3)n2)cc1", "Potency": "active: 35.5 µM"}, {"smiles": "COc1cc(-c2cc(OC)c3c(C)oc(C)c3c(=O)c2)ccc1OC(=O)c1ccccc1Cl", "Potency": "inconclusive: 35.5 µM [inhibitor, partial curve]"}, {"smiles": "C=C(C)C(=O)Nc1cccc(C2=NOC3(C2)C[C@@H](C(N)=O)N(C(=O)CCCCC)C3)c1", "note": "(some centres undefined)", "Potency": "active: 1.41 µM"}, {"smiles": "CN(C)/C=C/C(=O)c1ccc(OCCN(C)c2ccccn2)cc1", "Potency": "inconclusive: 70.8 µM [inhibitor, single point]"}, {"smiles": "CCc1ccc(C(=O)c2cn(CC(=O)Nc3ccc4c(c3)OCO4)c3cc(OC)c(OC)cc3c2=O)cc1", "Potency": "active: 79.4 µM"}, {"smiles": "COc1ccc(CNC(=O)CCn2cccn2)cc1", "Potency": "inactive"}, {"smiles": "Cc1ccc(C(C)C)c(OCC(=O)NCC2(N(C)C)CCCCC2)c1", "Potency": "inconclusive: 56.2 µM [inhibitor, partial curve]"}, {"smiles": "COc1ccc(CCn2cc3c(c2-c2ccc(Br)cc2)c(=O)n(C)c(=O)n3C)cc1OC", "Potency": "inconclusive: 79.4 µM [inhibitor, partial curve]"}, {"smiles": "O=C(NCCc1ccccc1Cl)c1ccc(Cn2c(=O)c3cccn3c3cccnc32)cc1", "Potency": "inconclusive: 79.4 µM [inhibitor, single point]"}, {"smiles": "O=C(NC1CC1)C1CCN(C2CCN(C(=O)c3ccc4cccc(F)c4n3)CC2)CC1", "Potency": "inactive"}, {"smiles": "C(=N\\N1CCN(Cc2cccc3ccccc23)CC1)/c1cccs1", "Potency": "active: 12.6 µM"}, {"smiles": "Cc1ccc(S(=O)(=O)c2c(COC(=O)c3ccc(Cl)cc3)c(-c3ccccc3)nn2C)cc1", "Potency": "inconclusive: 89.1 µM [inhibitor, single point]"}, {"smiles": "O=C(COc1ccccc1Cl)NC(=S)Nc1ccc(CN2CCOCC2)cc1", "Potency": "inconclusive: 79.4 µM [inhibitor, single point]"}, {"smiles": "O=C(CN1C(=O)NC(c2ccccc2)(c2ccccc2)C1=O)Nc1ccc2[nH]c(=O)[nH]c2c1", "Potency": "inconclusive: 70.8 µM [inhibitor, single point]"}, {"smiles": "CC(C)(C)c1ccc(C2=NC(=O)C(CC(=O)O)S2)cc1", "note": "(centres undefined)", "Potency": "inconclusive: 79.4 µM [inhibitor, partial curve]"}, {"smiles": "CN(CC(=O)Nc1ccc(N2CCOCC2)cc1)CC(=O)Nc1ccc(N2CCOCC2)cc1", "Potency": "inactive"}, {"smiles": "O=C(CNCC1CCCO1)N1CCN(S(=O)(=O)c2ccc3ccccc3c2)CC1", "note": "(centres undefined)", "Potency": "active: 56.2 µM"}, {"smiles": "O=c1c(-c2cccc(Cl)c2)c[nH]n1-c1ccccc1", "Potency": "inconclusive: 70.8 µM [inhibitor, single point]"}, {"smiles": "CCN(c1ccccc1)S(=O)(=O)c1ccc(NC(=O)c2cc(=O)c3cc(C)cc(C)c3o2)cc1", "Potency": "inactive"}, {"smiles": "COc1cc(CNC(C)c2ccccc2)cc(Br)c1OCc1ccccc1", "note": "(centres undefined)", "Potency": "inactive"}, {"smiles": "CCC(=O)N1N=C(c2ccc(C)o2)CC1c1ccc(N(C)C)cc1", "note": "(centres undefined)", "Potency": "inconclusive: 44.7 µM [inhibitor, partial curve]"}, {"smiles": "O=C(Cn1cc(SCc2c(F)cccc2Cl)c2ccccc21)N1CCCCCC1", "Potency": "inactive"}, {"smiles": "O=C(c1cc2ccccc2o1)N1CCN(c2ccccn2)CC1", "Potency": "inconclusive: 14.1 µM [inhibitor, full curve, poor fit]"}, {"smiles": "CN1C=C/C(=C\\c2cc[n+](C)c3ccccc23)c2ccccc21", "Potency": "inconclusive: 44.7 µM [inhibitor, partial curve]"}, {"smiles": "COC(=O)c1ccccc1NC(=S)N(C)C", "Potency": "inactive"}, {"smiles": "Cc1cc(C)n(C(=O)c2ccc([N+](=O)[O-])cc2Cl)n1", "Potency": "inconclusive: 44.7 µM [inhibitor, partial curve]"}, {"smiles": "Cc1ccc(/C=C2/NC(=O)N(Cc3ccc(Br)cc3)C2=O)o1", "Potency": "inactive"}]}]}
